According to article PMC6919601, “Identification of Plasmodium dipeptidyl aminopeptidase allosteric inhibitors by high throughput screening” (PLoS ONE, 2019):
Screen size: about 110,000 compounds; about 230 (0.21%) showed an effect of 50% or more. The list shows a part of the results.

Each compound was assayed against DPAP1 (Plasmodium falciparum, UniProt Q8IIJ9) (assay: primary screen, percent inhibition; read by cleavage of a fluorogenic dipeptide substrate; higher = more effect of the substance).
Parameters: species or system P. falciparum D10 trophozoite lysates; single well
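Further: 30 min substrate incubation versus DMSO and 10 µM JCP410 controls.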

Sequence of DPAP1 (Q8IIJ9 whole entry, looked up): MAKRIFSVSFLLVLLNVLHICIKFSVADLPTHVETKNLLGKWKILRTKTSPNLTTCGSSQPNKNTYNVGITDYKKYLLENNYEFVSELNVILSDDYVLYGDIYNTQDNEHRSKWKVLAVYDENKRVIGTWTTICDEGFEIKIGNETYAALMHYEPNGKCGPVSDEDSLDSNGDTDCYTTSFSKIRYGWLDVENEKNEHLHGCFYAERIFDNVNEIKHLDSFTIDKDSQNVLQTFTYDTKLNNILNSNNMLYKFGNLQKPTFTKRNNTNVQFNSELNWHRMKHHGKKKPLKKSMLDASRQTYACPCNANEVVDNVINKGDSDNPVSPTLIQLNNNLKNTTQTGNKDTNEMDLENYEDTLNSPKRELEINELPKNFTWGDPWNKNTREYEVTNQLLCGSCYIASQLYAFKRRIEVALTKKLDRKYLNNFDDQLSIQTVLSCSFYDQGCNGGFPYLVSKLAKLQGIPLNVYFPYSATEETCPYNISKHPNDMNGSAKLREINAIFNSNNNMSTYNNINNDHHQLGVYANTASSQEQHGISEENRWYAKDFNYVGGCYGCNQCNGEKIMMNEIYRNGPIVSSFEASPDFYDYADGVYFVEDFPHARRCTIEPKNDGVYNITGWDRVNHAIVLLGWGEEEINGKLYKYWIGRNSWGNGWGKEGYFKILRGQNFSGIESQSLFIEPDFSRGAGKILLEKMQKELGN

SMILES | % Inhibition @ 10 uM [%]
O=C(Nc1ccc2c(c1)C(=O)OC2)Nc1cccc2ccccc12 | 0.774
CC(c1ccccc1)n1cnc2c(cnn2-c2ccccc2)c1=O (centres unmarked) | -1.75
COc1ccc(C2CC(C(F)(F)F)n3ncc(C(=O)NCc4cn(C)nc4C)c3N2)cc1OC (centres unmarked) | -4.16
Cc1nc(N)nc2c1C(=O)CC(C)(C)C2 | 1.84
COC(=O)c1cc(-c2ccccc2Cl)no1 | 17.4
COc1ccc2oc(=O)c(-c3csc(N)n3)cc2c1 | 3.15
COc1ccc2c(CNCc3ccccc3C)c(C(=O)O)n(Cc3ccc(F)cc3)c2c1 | -4.16
CN1C(=O)CC(C(=O)Nc2ccccc2F)S/C1=N\c1ccccc1 (centres unmarked) | 0.385
Cc1ccc(C)c(Nc2nc(-c3ccc(Cl)cc3)c(C)s2)c1 | 6.4
COC(=O)CCCC[C@@H]1SC[C@@H](NC(=O)c2ccccc2)[C@@H]1O | 0.162
Cc1ccc(NC(=O)CN2C(=O)N/C(=C/c3cc(C)n(-c4ccccc4C)c3C)C2=O)cc1 | -2.99
CC(=O)Nc1ccc(NC(=O)c2ccc(-c3ccccc3)cc2)cc1 | -1.29
CCn1c(C(=O)Nc2ccsc2C(=O)OC)cc2sc(Cl)cc21 | -3.3
CC(C)CC(NC(=O)c1ccc(NC(=O)Nc2nc[nH]n2)cc1)C(=O)NCC#N (centres unmarked) | -3.97
Cc1ccc(C(C)C)c(OCC(O)CN2CCCCCC2)c1 (centres unmarked) | 0.992
O=C(COc1ccc(Cl)cc1Cl)Nc1cc(Cl)c(Cl)cc1Cl | -0.856
COc1ccc(CN2CCN(c3ccccn3)CC2)cc1OC | -4.61
O=C(C(NS(=O)(=O)c1cccc2nsnc12)c1ccccc1)N1CCOCC1 (centres unmarked) | 3.63
CCOC(=O)C1=C(CN2CCOCC2)NC(=O)NC1c1ccco1 (centres unmarked) | -2.83
CCOc1ccc(NC(=O)c2cc3ccccc3cc2O)cc1 | -5.23
O=[N+]([O-])c1ccc(N2CCN(C3CC4CCC3C4)CC2)cc1 (centres unmarked) | -4.75
COc1cccc(-c2cn3cccc(N)c3n2)c1 | 2.27
O=C(Nc1ccc2ccccc2c1)c1nc2ccccc2s1 | 0.726
Cc1cc(C)n2nc(SCC(=O)Nc3cccc(Cl)c3)nc2n1 | -1.44
O=S(=O)(NCc1ccncc1)c1cc(Cl)ccc1Cl | 1.38
O=C(c1cnn(-c2ccccc2)c1-n1cccc1)N1CCC2(CC1)OCCO2 | 1.8

SMILES | % Inhibition @ 10 uM [%]
O=[N+]([O-])c1ccc(N2CCOCC2)c2nonc12 | 8.56
CCOC(=O)c1c(C)c(-c2ccccc2)n(CC(=O)N2CCN(C(C)CC)CC2)c1C (centres unmarked) | 6.38
CC(C)OC(=O)c1cc2cc(Br)cc(Br)c2oc1=O | 5.37
Cc1cc(F)ccc1NC(=O)c1c(Cl)c(C)nn1C | 2.45
Cc1cc(C)c2c(NC(=O)CN3CCCCC3)csc2n1 | -2.05
O=c1[nH]c(=O)n(Cc2ccccc2)c2c1C(C(F)(F)F)(C(F)(F)F)NC(Cc1ccccc1)=N2 | -3.39
CC1CCN(C(=O)Cn2cc(C(=O)C3CCCCC3)c3ccccc32)CC1 | -1.33
CC/C(C)=C(\C#N)C(=O)Nc1ccc(Cl)cc1 | 1.08
CC1=C(C(=O)OCc2ccccc2)C(c2ccccc2C)C(C#N)=C(N)O1 (centres unmarked) | -5.6
CCCn1c(=O)c2sccc2n2c(CCCC(=O)NCc3ccc(F)cc3)nnc12 | -4.17
COc1ccccc1C1CC(c2ccccc2)=NN1c1ccccc1 (centres unmarked) | -4.85
COc1ccc(Cl)cc1NC(=O)c1ccc(N(C)S(C)(=O)=O)cc1 | 2.48
CCCCNc1nc2ccccc2c2nc(CCn3c(C)nc4ccccc43)nn12 | -5.33
CCC(CC)c1nn2c(=O)cc(CSc3n[nH]c(N)n3)nc2s1 | -3.95
CCOC(=O)N1CCN(C(=O)CN(c2cc(Cl)ccc2C)S(C)(=O)=O)CC1 | -0.0619
Cc1ccccc1CN(c1ccc(C(=O)NC2CC2)cc1)S(C)(=O)=O | -10
Cc1nc2nc(NC(=O)c3ccncc3)nn2c(C)c1Cl | -3.08
CC1=C(C(=O)Nc2cccc(C)c2C)C(c2ccc(Cl)cc2)NC(=O)N1 (centres unmarked) | -2.6
COc1ccccc1N1C(=O)c2ccc(C(=O)NCc3ccc4c(c3)OCO4)cc2C1=O | -2.22
Cc1[nH]c(-c2ccc(F)cc2)cc1C(=O)N1CCCCC1 | -0.361
CN(Cc1ccccc1)C(=O)Cn1cc(S(=O)(=O)Cc2cccc(Cl)c2)c2ccccc21 | -1.6
CCN(CC)c1ccc(-c2ccc3ccccc3n2)cc1 | 1.74
CCNc1nc(NC(C)C)nc(NS(=O)(=O)c2ccc(C)cc2)n1 | 2.94
Cc1ccc(Sc2c(C)nn(C(=O)Cc3ccccc3)c2C)cc1 | 1.63
c1cc(CNc2ccc3c(c2)CCC3)ccn1 | -4.04
CN1C(=O)c2ccccc2C(C(=O)NCc2ccc3c(c2)OCO3)C1c1c[nH]c2ccccc12 (centres unmarked) | -6.57

SMILES | % Inhibition @ 10 uM [%]
Cc1cc(C)c2c(N)c(C(=O)N3CCC(C)CC3)sc2n1 | 8.18
OCC1OC(Nc2ccc(-c3ccc(NC4OC(CO)C(O)C(O)C4O)cc3)cc2)C(O)C(O)C1O (centres unmarked) | 1.42
O=C(c1ccccc1)c1ccc2nc(N3CCCCC3)c3nncn3c2c1 | 1.3
CC(C)NC(=O)c1cnn2c(C(F)(F)F)cc(-c3ccc(F)cc3)nc12 | 0.224
CCc1ccccc1N1C(=O)CC(N2CCc3ccccc32)C1=O (centres unmarked) | 3.91
CCC1(C)CC(=O)c2c(ccc3oc(C(=O)NCCc4ccc(OC)c(OC)c4)c(C)c23)O1 (centres unmarked) | -3.96
CCC(CC)C(=O)Nc1ccc(S(=O)(=O)Nc2nccs2)cc1 | 0.0265
C=Cc1ccc(Cn2c(C)c(CNCCCc3ccccc3)c(C(=O)O)c2C)cc1 | 2.99
CCc1ccc(C(=O)c2cnc3cc4c(cc3c2N2CCN(CC)CC2)OCO4)cc1 | -4.86
CCCCc1n[nH]c(SCc2nc(O)c3ccccc3n2)n1 | 1.32
CCOc1ccc(C2c3c(-c4ccccc4O)n[nH]c3C(=O)N2CCCO)cc1 (centres unmarked) | 5.17
CCN(CC)CCN(CC)Cc1ccccc1Br | -7.93
CN(Cc1ccccc1)C(=O)c1oc(=O)c2ccccc2c1-c1ccccc1 | -5.22
OCc1nc2ccccc2n1Cc1ccccc1 | -3.35
CCC(=O)N1c2ccccc2N=C2CC(C)(C)CC(O)=C2C1c1ccccc1OC (centres unmarked) | 32
Cc1nc2ccccc2c2nc3ccccc3n12 | -4.7
O=C(NCc1ccc(F)cc1)C1CCCN(S(=O)(=O)c2cccnc2)C1 (centres unmarked) | 4.01
COc1ccccc1-c1nc(COc2cc(C)c(Cl)c(C)c2)no1 | 5.54
O=c1[nH]c2c(c(=O)n1C1CCCCC1)CCC2 | 5.08
CCOc1cc(C2C(C(=O)OC)=CN(C)C=C2C(=O)OC)cc(Br)c1O | 3.45
CC(O)CN(CC(C)O)CC1CC2C=CC1C2 (centres unmarked) | -4.14
N#CCNC(=O)[C@H](Cc1cccc2ccccc12)NC(=O)c1ccccc1 | -5.21
C1CN(c2nc(N3CCOCC3)nc(N3CCOCC3)n2)CCO1 | -4.35
COc1cc(CNC(=O)c2ccc(Br)o2)cc(OC)c1OC | -3.21
Cc1ccc(S(=O)(=O)c2nnn(-c3cccc(C)c3)c2N)cc1 | -1.71
N#Cc1c(N)nc2c(c1-c1ccccc1F)CCCCC2 | -2.39

SMILES | % Inhibition @ 10 uM [%]
CN1CCCN(Cc2ccoc2)CC1 | -0.828
CC1CC(C)CN(CCCNC(=O)c2ccc3nc(N4CCCCC4)sc3c2)C1 (centres unmarked) | 0.828
Fc1cccc(Cl)c1CNc1ccc(CNc2nc[nH]n2)cc1 | -1.43
N#CCNC(=O)[C@H](CC1CCCCC1)OC(=O)N1CCCC1 | -3.48
CCCCOc1ccc(C(=O)Nc2c3c(nn2-c2ccc(OC)cc2)CS(=O)(=O)C3)cc1 | -0.657
O=C(O)C1=NN(c2ccc(S(=O)(=O)O)cc2)C(=O)C1 | -2.59
CCCc1nc2nc(C)c(NS(=O)(=O)c3cccc(C#N)c3)c(O)n2n1 | 10.4
Cc1ccccc1C(=O)c1c(O)c2ccccc2n(C)c1=O | 5.63
COC(=O)c1cc(-c2ccc(C)cc2)on1 | 3.87
O=C(NCC(c1ccccc1)c1ccccc1)Nc1cccc2ccccc12 | -0.239
CN(C)CCCN(C(=O)c1ccc(Br)s1)c1nc2ccc(Cl)cc2s1 | -4.05
CCOC(=O)N1CCN(C(=O)CCc2c(C)nc3c(c(C)nn3-c3ccc(C)c(C)c3)c2C)CC1 | -0.465
Cc1ccc(O)c(-n2cc3c(c2-c2ccc(Cl)cc2)c(=O)n(C)c(=O)n3C)c1 | 0.366
CCN(Cc1ccccc1)C(=O)N[C@@H](CC(C)C)C(=O)NCC#N | -6.98
CC12CN3CC(c4ccccc4)(CN(C1)C31CCCCC1)C2=O | -3.08
COc1ccc(CCC(C)NC2C3CC4CC(C3)CC2C4)cc1 (centres unmarked) | 1.26
O=C(c1cc2ccccc2oc1=O)N(c1ccccc1)c1ccccc1 | 1.8
NC(=O)C1CCN(C2CC3CCC2C3)CC1 (centres unmarked) | 1.37
Cc1ccc(C)c(CN2CCN(Cc3ccccc3)CC2)c1 | -5.41
CC(CNc1nc2ccc(Cl)cc2n2cnnc12)c1ccccc1 (centres unmarked) | 1.15
O=C(COc1ccc(S(=O)(=O)N2CCCC2)cc1)Nc1ccc(Oc2ccccc2)cc1 | 2.6
O=C(O)CN1C(=O)c2ccccc2C1=O | 0.968
Cc1ccc(CN(Cc2ccco2)C(=O)COc2ccc(Br)cc2)o1 | 2.08
